Laboratory results reported in US20100311683A1, “CYTIDINE ANALOGS FOR TREATMENT OF MYELODYSPLASTIC SYNDROMES” (priority 2007, published 2010).
Read-outs that look alike come from different tables or passages of the source.

What was measured:
[1] = system: patients with higher risk MDS; assay: AZA-001 analysis: IRC-determined IWG 2006 responses
[2] = system: patients with higher risk MDS
[3] = system: patients with WHO AML
[4] = system: patients with higher risk MDS; remark: listed apart in the source
[5] = system: patients with higher risk MDS; assay: Phase III AZA-001 trial: azacitidine vs conventional care regimens (overall survival, AML transformation, IWG 2000 response, transfusion independence, infections, safety); settings: human, in vivo, 75 mg/m^2/day
[6] = system: patients with higher risk MDS; assay: AZA-001 analysis: 1-year survival by IWG 2000 response category
[7] = system: patients with AML or high-risk MDS after HSCT; settings: human, in vivo

Nc1ncn([C@@H]2O[C@H](CO)[C@@H](O)[C@H]2O)c(=O)n1 [azacitidine, 4-amino-1-β-D-ribofuranosyl-1,3,5-triazin-2(1H)-one]
IRC-determined IWG response rate, CR ([1]; AZA n=179): 16%
IRC-determined IWG response rate, HI ([1]; AZA n=179): 36%
IRC-determined IWG response rate, PR ([1]; AZA n=179): 1%
median duration of response, CR ([1]; in vivo): 156 days
median duration of response, HI ([1]; in vivo): 241 days
median duration of response, PR ([1]; in vivo): 217 days
median duration of response, SD ([1]; in vivo): 257 days
median duration of the most common AEs (≥20%) ([2]; AZA 75 mg/m2/d SC x7d q28d, N=175): 13 days
Patients with at least 1 individual AE occurring in ≥20% of patients, percent of patients per cycle ([2]; Cycles 1-2, N=175): 94%
TEAE Anemia, percent of patients per cycle ([2]; Cycles 1-2, N=175): 33%
TEAE Blood and lymphatic system disorders, percent of patients per cycle ([2]; Cycles 1-2, N=175): 75%
TEAE Constipation, percent of patients per cycle ([2]; Cycles 1-2, N=175): 35%
TEAE Diarrhea, percent of patients per cycle ([2]; Cycles 1-2, N=175): 12%
TEAE Fatigue, percent of patients per cycle ([2]; Cycles 1-2, N=175): 13%
TEAE Gastrointestinal disorders, percent of patients per cycle ([2]; Cycles 1-2, N=175): 62%
TEAE General disorders and administration site conditions, percent of patients per cycle ([2]; Cycles 1-2, N=175): 62%
TEAE Injection site erythema, percent of patients per cycle ([2]; Cycles 1-2, N=175): 35%
TEAE Injection site reaction, percent of patients per cycle ([2]; Cycles 1-2, N=175): 21%
TEAE Nausea, percent of patients per cycle ([2]; Cycles 1-2, N=175): 36%
TEAE Neutropenia, percent of patients per cycle ([2]; Cycles 1-2, N=175): 50%
TEAE Pyrexia, percent of patients per cycle ([2]; Cycles 1-2, N=175): 16%
TEAE Thrombocytopenia, percent of patients per cycle ([2]; Cycles 1-2, N=175): 54%
TEAE Vomiting, percent of patients per cycle ([2]; Cycles 1-2, N=175): 18%
Patients with at least 1 individual AE occurring in ≥20% of patients, percent of patients per cycle ([2]; Cycles 3-4, N=147): 79%
TEAE Anemia, percent of patients per cycle ([2]; Cycles 3-4, N=147): 18%
TEAE Blood and lymphatic system disorders, percent of patients per cycle ([2]; Cycles 3-4, N=147): 54%
TEAE Constipation, percent of patients per cycle ([2]; Cycles 3-4, N=147): 20%
TEAE Diarrhea, percent of patients per cycle ([2]; Cycles 3-4, N=147): 8%
TEAE Fatigue, percent of patients per cycle ([2]; Cycles 3-4, N=147): 10%
TEAE Gastrointestinal disorders, percent of patients per cycle ([2]; Cycles 3-4, N=147): 42%
TEAE General disorders and administration site conditions, percent of patients per cycle ([2]; Cycles 3-4, N=147): 44%
TEAE Injection site erythema, percent of patients per cycle ([2]; Cycles 3-4, N=147): 21%
TEAE Injection site reaction, percent of patients per cycle ([2]; Cycles 3-4, N=147): 13%
TEAE Nausea, percent of patients per cycle ([2]; Cycles 3-4, N=147): 19%
TEAE Neutropenia, percent of patients per cycle ([2]; Cycles 3-4, N=147): 31%
TEAE Pyrexia, percent of patients per cycle ([2]; Cycles 3-4, N=147): 6%
TEAE Thrombocytopenia, percent of patients per cycle ([2]; Cycles 3-4, N=147): 30%
TEAE Vomiting, percent of patients per cycle ([2]; Cycles 3-4, N=147): 11%
Patients with at least 1 individual AE occurring in ≥20% of patients, percent of patients per cycle ([2]; Cycles 5-6, N=130): 65%
TEAE Anemia, percent of patients per cycle ([2]; Cycles 5-6, N=130): 14%
TEAE Blood and lymphatic system disorders, percent of patients per cycle ([2]; Cycles 5-6, N=130): 42%
TEAE Constipation, percent of patients per cycle ([2]; Cycles 5-6, N=130): 13%
TEAE Diarrhea, percent of patients per cycle ([2]; Cycles 5-6, N=130): 4%
TEAE Fatigue, percent of patients per cycle ([2]; Cycles 5-6, N=130): 3%
TEAE Gastrointestinal disorders, percent of patients per cycle ([2]; Cycles 5-6, N=130): 25%
TEAE General disorders and administration site conditions, percent of patients per cycle ([2]; Cycles 5-6, N=130): 32%
TEAE Injection site erythema, percent of patients per cycle ([2]; Cycles 5-6, N=130): 18%
TEAE Injection site reaction, percent of patients per cycle ([2]; Cycles 5-6, N=130): 9%
TEAE Nausea, percent of patients per cycle ([2]; Cycles 5-6, N=130): 12%
TEAE Neutropenia, percent of patients per cycle ([2]; Cycles 5-6, N=130): 28%
TEAE Pyrexia, percent of patients per cycle ([2]; Cycles 5-6, N=130): 4%
TEAE Thrombocytopenia, percent of patients per cycle ([2]; Cycles 5-6, N=130): 25%
TEAE Vomiting, percent of patients per cycle ([2]; Cycles 5-6, N=130): 5%
Patients with at least 1 individual AE occurring in ≥20% of patients, percent of patients per cycle ([2]; Cycles 7-8, N=107): 65%
TEAE Anemia, percent of patients per cycle ([2]; Cycles 7-8, N=107): 11%
TEAE Blood and lymphatic system disorders, percent of patients per cycle ([2]; Cycles 7-8, N=107): 36%
TEAE Constipation, percent of patients per cycle ([2]; Cycles 7-8, N=107): 9%
TEAE Diarrhea, percent of patients per cycle ([2]; Cycles 7-8, N=107): 5%
TEAE Fatigue, percent of patients per cycle ([2]; Cycles 7-8, N=107): 6%
TEAE Gastrointestinal disorders, percent of patients per cycle ([2]; Cycles 7-8, N=107): 27%
TEAE General disorders and administration site conditions, percent of patients per cycle ([2]; Cycles 7-8, N=107): 32%
TEAE Injection site erythema, percent of patients per cycle ([2]; Cycles 7-8, N=107): 16%
TEAE Injection site reaction, percent of patients per cycle ([2]; Cycles 7-8, N=107): 9%
TEAE Nausea, percent of patients per cycle ([2]; Cycles 7-8, N=107): 14%
TEAE Neutropenia, percent of patients per cycle ([2]; Cycles 7-8, N=107): 19%
TEAE Pyrexia, percent of patients per cycle ([2]; Cycles 7-8, N=107): 6%
TEAE Thrombocytopenia, percent of patients per cycle ([2]; Cycles 7-8, N=107): 20%
TEAE Vomiting, percent of patients per cycle ([2]; Cycles 7-8, N=107): 8%
Patients with at least 1 individual AE occurring in ≥20% of patients, percent of patients per cycle ([2]; Cycles 9-10, N=89): 65%
TEAE Anemia, percent of patients per cycle ([2]; Cycles 9-10, N=89): 14%
TEAE Blood and lymphatic system disorders, percent of patients per cycle ([2]; Cycles 9-10, N=89): 36%
TEAE Constipation, percent of patients per cycle ([2]; Cycles 9-10, N=89): 17%
TEAE Diarrhea, percent of patients per cycle ([2]; Cycles 9-10, N=89): 5%
TEAE Fatigue, percent of patients per cycle ([2]; Cycles 9-10, N=89): 3%
TEAE Gastrointestinal disorders, percent of patients per cycle ([2]; Cycles 9-10, N=89): 30%
TEAE General disorders and administration site conditions, percent of patients per cycle ([2]; Cycles 9-10, N=89): 28%
TEAE Injection site erythema, percent of patients per cycle ([2]; Cycles 9-10, N=89): 11%
TEAE Injection site reaction, percent of patients per cycle ([2]; Cycles 9-10, N=89): 9%
TEAE Nausea, percent of patients per cycle ([2]; Cycles 9-10, N=89): 11%
TEAE Neutropenia, percent of patients per cycle ([2]; Cycles 9-10, N=89): 20%
TEAE Pyrexia, percent of patients per cycle ([2]; Cycles 9-10, N=89): 7%
TEAE Thrombocytopenia, percent of patients per cycle ([2]; Cycles 9-10, N=89): 21%
TEAE Vomiting, percent of patients per cycle ([2]; Cycles 9-10, N=89): 6%
anemia events managed with transfusions ([2]; in vivo): 87%
cumulative or delayed toxicities ([2]; in vivo): no cumulative or delayed toxicities
gastrointestinal events managed with concomitant medications ([2]; in vivo): 72%
gastrointestinal events that were transient ([2]; in vivo): 95%
hematologic AEs that were transient ([2]; in vivo): > 86%
hematologic events managed with delays in the next AZA cycle ([2]; in vivo): 99%
injection site reactions requiring treatment with concomitant medications ([2]; in vivo): < 15%
median duration of constipation ([2]; in vivo): approximately 1 week
median duration of diarrhea, nausea, vomiting ([2]; in vivo): 1 to 4 days
median duration of fatigue and pyrexia ([2]; in vivo): approximately 1 week
median duration of hematologic AEs ([2]; in vivo): ~2 weeks
median duration of injection site reactions ([2]; in vivo): 12 days
patients discontinued due to a hematologic event ([2]; in vivo): < 5%
patients in whom fatigue and pyrexia were managed by delay in the next AZA cycle ([2]; in vivo): approximately 5%
patients with neutropenia, anemia, or thrombocytopenia that required hospitalization ([2]; in vivo): ≤ 10%
thrombocytopenia events managed with transfusions ([2]; in vivo): 29%
AEs that resulted in discontinuation of AZA ([2]; most common AEs): Less than 1%
OS rate at 2 yrs [3]: 50%
RR hospitalization, AZA vs CCR [3]: 0.79
RR infections requiring IV antibiotics, AZA vs CCR [3]: 0.51
hazard ratio (HR) OS, AZA vs CCR [3]: 0.47
infections requiring IV antibiotics [3]: 0.58 per pt-year
rate of hospitalization [3]: 3.4 per pt-year
KM median OS ([3]; AZA n=55): 24.5 months
HR OS, AZA vs CCR ([3]; cytogenetic intermediate patients): 0.47
HR OS, AZA vs CCR ([3]; unfavorable cytogenetics): 0.66
rate of early discontinuation ([4]; human, in vivo): 39%
CR+PR rate ([4]; patients pre-selected for LDAC): 31.1%
HI (major + minor) ([4]; patients pre-selected for LDAC): 53.3%
deaths during study ([4]; patients pre-selected for LDAC): 45%
difference in median OS, AZA vs LDAC ([4]; patients pre-selected for LDAC): 9.2 months
hazard ratio OS, AZA vs LDAC ([4]; patients pre-selected for LDAC): 0.38
transfusion independence in baseline-dependent patients ([4]; patients pre-selected for LDAC): 45%
median OS ([4]; patients pre-selected for LDAC: AZA n=45, LDAC n=49): 24.4 months
deaths considered related to treatment during the first 3 cycles [5]: 4 patients
hazard ratio OS, AZA vs CCR ([6]; CR patients excluded from the analysis): 0.65
one year survival rate ([6]; IWG 2000 best response CR): 96.7%
one year survival rate ([6]; IWG 2000 best response HI): 96.0%
one year survival rate ([6]; IWG 2000 best response PR): 85.5%
one year survival rate ([6]; IWG 2000 best response SD): 73.3%
one year survival rate ([6]; all AZA-treated patients): 68.2%
patients alive at one year ([6]; disease progression (DP)): 28.6%
infections: influenza/parainfluenza [7]: 2 n
